Reference: PubChem BioAssay AID540317 (National Center for Advancing Translational Sciences (NCATS), 2011)
Screen size: about 390,000 compounds; about 2,200 (0.56%) were called active. Inconclusive results, whose numbers are uncertain, are shown with a selection of clear calls. Calls come from the whole dose curve; as a rule, active = well fitted inhibition curve with a large enough effect; inconclusive = small, poorly fitted or top-dose-only effect; inactive = no such curve, though single readings can be large or run the other way. Potencies beside an inconclusive call are fits to weak or partial responses and may not hold up.

Biological target: Chromobox protein homolog 1 (Homo sapiens) (UniProt P83916)
Assay: HTS for Inhibitors of HP1-beta Chromodomain Interactions with Methylated Histone Tails; note: nearly all actives have a fitted effect of over 70% in size
Conditions: AlphaScreen HP1-beta / biotin-H3K9me3 peptide binding; series mostly up to 114 µM
Method in brief: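 HP1-beta protein (50 nM final) preincubated 30 min at room temperature with biotinylated H3(1-18)K9me3 peptide (50 nM) in PBS pH 7.4, 0.01% Tween-20, then compound added for 30 min. AlphaScreen streptavidin donor/nickel chelate acceptor beads (10 ug/mL final), 30 min dark, luminescence read.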
Potency is the fitted concentration of half-maximal effect; tags give direction and shape of the fitted curve.

Sequence of UniProt P83916 (P83916 whole entry, looked up): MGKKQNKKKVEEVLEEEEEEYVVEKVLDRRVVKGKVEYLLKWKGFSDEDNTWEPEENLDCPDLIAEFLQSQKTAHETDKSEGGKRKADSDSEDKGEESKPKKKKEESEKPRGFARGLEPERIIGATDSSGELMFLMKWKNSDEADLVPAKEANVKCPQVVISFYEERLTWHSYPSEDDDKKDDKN

Compound | Potency
Cc1ccc2nc(Cl)c3cc(C(=O)N(CCN(C)C)Cc4ccco4)sc3c2c1 | inconclusive: 50.1 µM [inhibitor, partial curve]
Cc1cccc(/N=C/c2sc3ccccc3c2O)n1 | inconclusive: 44.7 µM [inhibitor, partial curve]
O=C(CN1CCN(c2ccc(F)cc2)CC1)c1cccs1 | inactive
Cc1ccc(N2CC(NC(=O)C3CCCCC3)CC2=O)cc1C (stereo unspecified) | inactive
O=C(OC1Cn2c(=O)ccc(=O)n2C1)c1ccccc1 | inconclusive: 39.8 µM [inhibitor, single point]
C/C=C/c1ccc(OCCCNC2CCCC2)c(OC)c1 | inconclusive: 56.2 µM [inhibitor, partial curve]
COc1cc(OC)c(Nc2c3c(nc4nc(-c5cccs5)nn24)CCCC3)cc1Cl | inactive
COc1cccc(/C=C2\SC(=S)N(CCCC(=O)N3CCCCC3)C2=O)c1 | inconclusive: 17.8 µM [inhibitor, full curve]
CCN(c1ccccc1)S(=O)(=O)c1ccc(N2CCN(c3ccc(O)cc3)CC2)nc1 | active: 50.1 µM
OCCN(Cc1ccccc1)CC1CC=CCC1 (stereo unspecified) | inconclusive: 70.8 µM [inhibitor, single point]
Cc1ccc(-c2nc(CS(=O)(=O)CC(=O)Nc3cc(C)ccc3C)c(C)o2)cc1 | inactive
COc1cc(CN(C(=O)COc2ccc(Cl)c(C)c2)c2ccccn2)cc(OC)c1OC | inactive
O=C(O)CCCN1C(=O)/C(=C/c2ccc(-c3nc4ccccc4s3)o2)SC1=S | active: 15.8 µM
Cc1ccc(-c2nc(Nc3ccc(O)cc3)c3ccccc3n2)cc1 | inactive
CC(=O)Nc1ccc(S(=O)(=O)N2CCN(CC3CC4C=CC3C4)CC2)cc1 (stereo unspecified) | inconclusive: 28.2 µM [inhibitor, single point]
CCc1ccc2c(c1)NC(c1cccnc1)=NC(c1ccc(C(C)(C)C)cc1)=N2 | inconclusive: 14.1 µM [inhibitor, partial curve, poor fit]
CCc1cccc(OCCOCCN2CCCC2)c1 | inconclusive: 63.1 µM [inhibitor, partial curve, poor fit]
Fc1ccc(N2CCN(c3nc(CN4CCOCC4)nc4scc(-c5ccccc5)c34)CC2)cc1 | inconclusive: 28.2 µM [inhibitor, partial curve]
CN(C)c1ccc(C(CNS(=O)(=O)c2ccc([N+](=O)[O-])cc2)N2CCCC2)cc1 (stereo unspecified) | inconclusive: 50.1 µM [inhibitor, partial curve]
O=C(OCc1cc(=O)n2nc(-c3cccs3)sc2n1)c1ccc(F)cc1 | inactive
O=C(Nc1nc(-c2ccccn2)cs1)c1cc(Cl)ccc1[N+](=O)[O-] | inconclusive: 2.51 µM [inhibitor, full curve]
COc1ccccc1N(C)S(=O)(=O)c1ccc(Cl)c(C(=O)NC2=NCCS2)c1 | inconclusive: 89.1 µM [inhibitor, single point]
CCCS(=O)(=O)N1CCN(Cc2c[nH]c3ccccc23)CC1 | inconclusive: 35.5 µM [inhibitor, partial curve]
O=C(Nc1cccc(Cl)c1)C1CCCN(C2=NS(=O)(=O)c3ccccc32)C1 (stereo unspecified) | inactive

Compound | Potency
O=C1C(Cl)=C(N2CCOCC2)C(=O)N1c1cccc(C(F)(F)F)c1 | inactive
Cc1ccc(CCNC(=O)c2ccc(CSCc3ccccc3C)o2)cc1 | inactive
CN(C)C(=S)N=c1ssc(=S)n1Cc1cccnc1 | inconclusive: 22.4 µM [inhibitor, single point]
Cc1nc(SCc2ccccc2)n[nH]1 | inactive
Cc1[nH]c2ccc(C(=O)OC(C)C(=O)N(C)C3CCCCC3)cc2c1C (stereo unspecified) | inconclusive: 70.8 µM [inhibitor, partial curve]
Oc1cccc(C(Nc2nccs2)c2ccc3cccnc3c2O)c1 (stereo unspecified) | inconclusive: 70.8 µM [inhibitor, partial curve, poor fit]
CC(C)(C)c1cc(NC(=O)COc2ccc(Br)cc2)n(-c2ccccc2)n1 | inactive
CCOc1ccc(CNc2ncc(-c3ccccc3)n2C)cc1 | inconclusive: 56.2 µM [inhibitor, single point]
COc1ccc(N2CCN(C(=S)NC(=O)c3cccs3)CC2)c([N+](=O)[O-])c1 | inconclusive: 50.1 µM [inhibitor, partial curve]
Cn1cccc1/C=N/NC(=O)c1cccc(OC(F)(F)C(F)F)c1 | inconclusive: 70.8 µM [inhibitor, partial curve]
CCC(C)N(C(=O)COC(=O)c1ccc(=O)n(Cc2ccccc2)n1)C1CCS(=O)(=O)C1 (stereo unspecified) | inactive
COCCCn1c(O)c(/C=C2\N=C(C#N)C(=Nc3ccc(C)cc3)O2)sc1=S | inconclusive: 15.8 µM [inhibitor, full curve]
Cc1cc(C)c(OCCOCCN(C)C)c(Br)c1 | inconclusive: 17.8 µM [inhibitor, full curve]
CCOC(=O)c1c(-c2ccc(OC)cc2)csc1NC(=O)CCN1CCOCC1 | inconclusive: 17.8 µM [inhibitor, full curve]
COc1cccc(NC(=O)C2CC(=O)OC23CCOC(C)(C)C3)c1 (stereo unspecified) | inactive
Cc1ccc(S(=O)(=O)c2cc3c(=O)n4ccccc4nc3n(CCCN3CCOCC3)c2=N)cc1C | inactive
O=C(NC(=S)Nc1c(Cl)ccc2nsnc12)c1ccco1 | inconclusive: 50.1 µM [inhibitor, partial curve]
CC/C(=N\NC(=S)Nc1cc(C)ccc1C)c1ccc(OC(F)F)cc1 | inconclusive: 44.7 µM [inhibitor, partial curve]
COc1cc2c(cc1OC)CN(c1nc(CN3CCOCC3)nc3sc4c(c13)CCCC4)CC2 | inconclusive: 56.2 µM [inhibitor, single point]
Clc1cccc(OCCN2CCOCC2)c1 | inconclusive: 28.2 µM [inhibitor, full curve]
COc1cccc(C(=O)NC2CC3CCCC(C2)N3CC(=O)Nc2ccc(N(C)C)cc2)c1 (stereo unspecified) | inconclusive: 44.7 µM [inhibitor, partial curve, poor fit]
COc1ccc(N2C(N)=C(C#N)C(c3cc(CN4CCOCC4)cs3)C3=C2CCCC3=O)cc1 (stereo unspecified) | inactive
CCOC(=O)c1c(N)sc(C(=O)OCCOC)c1C | inconclusive: 11.2 µM [inhibitor, partial curve, poor fit]
O=[N+]([O-])c1ccc(N2CCN(c3ccccc3F)CC2)c(S(=O)(=O)N2CCOCC2)c1 | inactive

Compound | Potency
CCCC(C)c1nnc(NC(=O)C(=O)OCC)s1 (stereo unspecified) | inconclusive: 12.6 µM [inhibitor, full curve]
Cc1ccc(S(=O)(=O)N(C(=O)c2ccco2)c2cc3sc(=O)oc3c3ccccc23)cc1 | inconclusive: 15.8 µM [inhibitor, full curve, poor fit]
CNC(=S)NCC(O)c1ccc([N+](=O)[O-])cc1 (stereo unspecified) | inactive
COc1ccc(-c2csc(Nc3ccccc3)[n+]2Cc2ccccc2)cc1 | inconclusive: 10 µM [inhibitor, partial curve, poor fit]
CCC(=O)Nc1c(-c2cccs2)c(=O)c2ccccc2n1C | inactive
O=C(Nc1cccc(Cl)c1)c1cc(N=Nc2ccc([N+](=O)[O-])cc2Cl)ccc1O | inconclusive: 7.08 µM [inhibitor, full curve]
COc1cc(/C=C2/SC(=S)N(c3c(C)n(C)n(-c4ccccc4)c3=O)C2=O)ccc1O | inconclusive: 44.7 µM [inhibitor, partial curve]
CC(=O)c1ccc(NC2=C(N3CCOCC3)C(=O)c3ccccc3C2=O)cc1 | active: 28.2 µM
Cc1ccc(S(=O)(=O)c2nnn3c2nc(N2CCOCC2)c2sccc23)cc1C | inactive
CN1C2CCC1/C(=C/c1cccn1C)C(=O)/C2=C\c1cccn1C | inconclusive: 50.1 µM [inhibitor, partial curve, poor fit]
Cc1cc(C)cc(C(=O)NC(=S)Nc2ccc(Cc3ccncc3)cc2)c1 | inconclusive: 10 µM [inhibitor, partial curve, poor fit]
Fc1cccc(CSc2ccc(-c3ccco3)nn2)c1 | inactive
Cc1ccc(C2=CSC3=NCCN23)c(C)c1 | inactive
Cc1ccc(OCCn2cc(/C=N/NC(=O)c3ccncc3)c3ccccc32)cc1 | inactive
CCCn1c(=S)[nH]c2cc(OC)c(OC)cc2c1=O | inactive
Cc1ccc(CN2CCN(C(=O)c3cccc4ccccc34)CC2)cc1 | inconclusive: 14.1 µM [inhibitor, full curve, poor fit]
CCN(CC)C(=O)[C@H]1C[C@H](CC(=O)NC/C=C(\C)CCC=C(C)C)C(=O)N2CCc3c([nH]c4cc(-c5ccco5)ccc34)[C@]12C | inconclusive: 28.2 µM [inhibitor, partial curve, poor fit]
Cc1ccccc1C(=O)N1CCC(C(=O)N2CCN(c3ncccn3)CC2)CC1 | inactive
Cc1ccccc1N1CCN(C(=S)c2ccc([N+](=O)[O-])cc2)CC1 | inconclusive: 11.2 µM [inhibitor, full curve, poor fit]
CCOc1cc(/C=C/C(=O)O)ccc1OCc1ccccc1 | inactive
COc1ccc2c(c1)C(C)=CC(C)(C)N2C(=O)CNCc1ccc2c(c1)OCO2 | inconclusive: 17.8 µM [inhibitor, full curve]
CCN(CC)c1ccc(NS(=O)(=O)c2cc(-c3cc(C)no3)ccc2C)c(C)c1 | inconclusive: 17.8 µM [inhibitor, partial curve, poor fit]
CC(/C=C/c1ccccc1)=N\NC(N)=S | inconclusive: 35.5 µM [inhibitor, partial curve]
